Test results reported in PMC12903445.
These are yes or no findings as the source states them, for the method shown. For part of these data: In cells and extracts the contact can be indirect. Some binding calls cover weakened binding; strength is not graded here. Tags and fused reporters may be left off the sequences shown.

Amino acid sequences for entries named in this document (tags omitted).
UniProt Q9FLP6: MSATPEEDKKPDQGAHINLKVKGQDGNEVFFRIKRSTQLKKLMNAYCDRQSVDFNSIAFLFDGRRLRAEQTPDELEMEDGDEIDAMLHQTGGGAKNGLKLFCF
UniProt P55852: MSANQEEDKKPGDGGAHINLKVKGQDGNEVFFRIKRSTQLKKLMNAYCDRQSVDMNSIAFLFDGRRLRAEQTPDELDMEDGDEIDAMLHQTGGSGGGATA

T1: full-length αKNL2 (aa 1–598), Venus-half fusion (A. thaliana) (UniProt F4KCE9)
T1 sequence: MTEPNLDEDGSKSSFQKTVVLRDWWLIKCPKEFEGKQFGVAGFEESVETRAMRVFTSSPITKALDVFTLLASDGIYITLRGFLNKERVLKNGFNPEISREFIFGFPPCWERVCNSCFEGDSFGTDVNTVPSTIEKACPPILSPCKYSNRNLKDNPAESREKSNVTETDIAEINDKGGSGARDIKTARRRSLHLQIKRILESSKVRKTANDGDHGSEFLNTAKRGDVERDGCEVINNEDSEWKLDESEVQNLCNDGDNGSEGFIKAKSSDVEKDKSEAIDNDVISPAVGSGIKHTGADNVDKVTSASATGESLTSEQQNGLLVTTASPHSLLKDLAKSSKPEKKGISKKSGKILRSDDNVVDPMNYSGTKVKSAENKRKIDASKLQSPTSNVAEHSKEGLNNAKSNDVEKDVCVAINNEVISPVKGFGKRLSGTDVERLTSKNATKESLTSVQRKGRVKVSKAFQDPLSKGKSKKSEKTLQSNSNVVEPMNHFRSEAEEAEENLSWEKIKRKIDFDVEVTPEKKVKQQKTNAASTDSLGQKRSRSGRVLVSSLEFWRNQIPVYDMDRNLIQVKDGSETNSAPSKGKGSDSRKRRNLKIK

T2: αKNL2-C (C-terminal region of Arabidopsis KINETOCHORE NULL2, aa 364–598), Venus-half fusion (A. thaliana) (UniProt F4KCE9)
T2 sequence: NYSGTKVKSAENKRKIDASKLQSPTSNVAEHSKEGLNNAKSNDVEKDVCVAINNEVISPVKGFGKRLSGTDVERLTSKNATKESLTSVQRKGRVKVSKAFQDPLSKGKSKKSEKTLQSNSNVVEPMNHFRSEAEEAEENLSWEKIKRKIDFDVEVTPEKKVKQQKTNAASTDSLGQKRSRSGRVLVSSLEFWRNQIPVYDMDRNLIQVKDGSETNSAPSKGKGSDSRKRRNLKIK

T3: αKNL2-N (N-terminal region of αKNL2, aa 1–363), Venus-half fusion (A. thaliana) (UniProt F4KCE9)
T3 sequence: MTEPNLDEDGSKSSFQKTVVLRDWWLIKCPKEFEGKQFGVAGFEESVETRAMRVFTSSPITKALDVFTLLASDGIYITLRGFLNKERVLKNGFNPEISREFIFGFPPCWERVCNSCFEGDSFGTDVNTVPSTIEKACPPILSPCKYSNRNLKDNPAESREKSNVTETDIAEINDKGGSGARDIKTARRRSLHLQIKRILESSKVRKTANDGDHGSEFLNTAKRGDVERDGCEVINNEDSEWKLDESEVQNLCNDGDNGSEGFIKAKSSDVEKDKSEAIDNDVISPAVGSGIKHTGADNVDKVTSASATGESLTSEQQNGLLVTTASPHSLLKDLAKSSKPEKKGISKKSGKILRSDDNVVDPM

T4: αKNL2 (full-length) as yeast two-hybrid bait (A. thaliana) (UniProt F4KCE9)
T4 sequence: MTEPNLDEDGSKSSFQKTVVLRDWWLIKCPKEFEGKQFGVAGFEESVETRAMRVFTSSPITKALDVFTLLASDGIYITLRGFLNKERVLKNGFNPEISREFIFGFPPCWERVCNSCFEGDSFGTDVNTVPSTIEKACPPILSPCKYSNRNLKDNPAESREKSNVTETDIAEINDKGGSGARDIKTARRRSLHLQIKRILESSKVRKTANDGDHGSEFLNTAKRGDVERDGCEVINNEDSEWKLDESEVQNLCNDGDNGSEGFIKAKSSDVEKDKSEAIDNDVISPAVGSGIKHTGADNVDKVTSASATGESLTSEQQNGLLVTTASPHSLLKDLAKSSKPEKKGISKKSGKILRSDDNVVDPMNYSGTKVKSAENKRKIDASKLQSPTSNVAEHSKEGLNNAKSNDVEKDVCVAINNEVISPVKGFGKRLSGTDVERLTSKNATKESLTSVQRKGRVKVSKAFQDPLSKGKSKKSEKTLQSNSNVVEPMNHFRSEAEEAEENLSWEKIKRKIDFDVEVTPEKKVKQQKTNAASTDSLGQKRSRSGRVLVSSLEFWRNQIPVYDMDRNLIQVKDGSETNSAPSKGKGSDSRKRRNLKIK

T5: αKNL2-N (aa 1–363) as yeast two-hybrid bait (A. thaliana) (UniProt F4KCE9)
T5 sequence: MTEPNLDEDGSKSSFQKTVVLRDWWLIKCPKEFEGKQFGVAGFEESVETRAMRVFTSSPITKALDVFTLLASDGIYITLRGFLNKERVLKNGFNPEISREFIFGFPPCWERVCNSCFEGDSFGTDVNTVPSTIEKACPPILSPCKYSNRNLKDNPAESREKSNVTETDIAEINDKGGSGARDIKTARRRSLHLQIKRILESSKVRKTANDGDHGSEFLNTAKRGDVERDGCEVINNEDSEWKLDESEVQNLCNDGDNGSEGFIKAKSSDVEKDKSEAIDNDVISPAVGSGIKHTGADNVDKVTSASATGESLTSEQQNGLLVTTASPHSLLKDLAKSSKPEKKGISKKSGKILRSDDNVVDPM

T6: CENH3 (centromeric histone H3), Venus-half fusion (A. thaliana) (UniProt Q8RVQ9)
T6 sequence: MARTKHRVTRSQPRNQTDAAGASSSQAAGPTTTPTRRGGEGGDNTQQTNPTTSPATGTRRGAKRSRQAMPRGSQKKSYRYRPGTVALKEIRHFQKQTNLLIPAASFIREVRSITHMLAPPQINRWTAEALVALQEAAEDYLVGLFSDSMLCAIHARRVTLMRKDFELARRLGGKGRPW

T7: ULP1d (SUMO protease ULP1d/OTS1), Venus-half fusion (A. thaliana) (UniProt Q2PS26)
T7 sequence: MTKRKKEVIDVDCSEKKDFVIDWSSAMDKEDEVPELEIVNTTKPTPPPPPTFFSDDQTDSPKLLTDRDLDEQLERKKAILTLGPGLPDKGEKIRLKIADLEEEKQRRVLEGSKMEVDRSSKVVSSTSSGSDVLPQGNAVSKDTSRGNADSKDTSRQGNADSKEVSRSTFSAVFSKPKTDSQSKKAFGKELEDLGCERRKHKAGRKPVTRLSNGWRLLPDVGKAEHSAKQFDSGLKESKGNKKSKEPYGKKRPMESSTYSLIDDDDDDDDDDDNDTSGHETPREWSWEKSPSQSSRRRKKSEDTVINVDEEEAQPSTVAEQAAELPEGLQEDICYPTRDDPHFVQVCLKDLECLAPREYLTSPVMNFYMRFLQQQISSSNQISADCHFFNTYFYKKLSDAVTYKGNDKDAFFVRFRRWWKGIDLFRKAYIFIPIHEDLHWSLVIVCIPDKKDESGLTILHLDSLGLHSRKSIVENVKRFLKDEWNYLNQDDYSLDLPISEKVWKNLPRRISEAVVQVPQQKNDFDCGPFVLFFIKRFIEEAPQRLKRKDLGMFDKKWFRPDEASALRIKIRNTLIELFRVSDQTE

T8: αKNL2-C^K474R/K511R, Venus-half fusion (A. thaliana) (UniProt F4KCE9)
T8 sequence: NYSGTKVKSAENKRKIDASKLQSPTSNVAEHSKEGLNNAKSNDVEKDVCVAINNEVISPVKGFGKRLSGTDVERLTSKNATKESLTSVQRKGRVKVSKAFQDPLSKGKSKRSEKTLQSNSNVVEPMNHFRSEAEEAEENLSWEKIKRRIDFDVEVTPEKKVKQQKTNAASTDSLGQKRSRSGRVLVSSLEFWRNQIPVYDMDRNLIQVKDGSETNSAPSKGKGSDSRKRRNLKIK

T9: αKNL2-C^Mut-SUMO (SUMOylation-deficient αKNL2-C: K378R, K474R, K511R, SIMs 547–551 and 568–572 deleted), Venus-half fusion (A. thaliana) (UniProt F4KCE9)
T9 sequence: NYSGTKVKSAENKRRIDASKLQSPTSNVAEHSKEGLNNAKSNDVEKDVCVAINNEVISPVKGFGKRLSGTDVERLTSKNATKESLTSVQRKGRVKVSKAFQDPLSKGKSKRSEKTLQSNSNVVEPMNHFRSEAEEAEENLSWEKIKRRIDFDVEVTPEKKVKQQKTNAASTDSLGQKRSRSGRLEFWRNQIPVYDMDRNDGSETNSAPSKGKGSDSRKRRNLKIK


Legend:
[1] = target: T1, full-length αKNL2 (aa 1–598), Venus-half fusion (A. thaliana); experiment: split reporter; BiFC with Venus halves (VENn/VENc) in N. benthamiana leaf epidermal cells co-infiltrated with A. tumefaciens GV3101; HC-Pro co-expressed; both orientations tested
[2] = target: T2, αKNL2-C (C-terminal region of Arabidopsis KINETOCHORE NULL2, aa 364–598), Venus-half fusion (A. thaliana); experiment: as above
[3] = target: T3, αKNL2-N (N-terminal region of αKNL2, aa 1–363), Venus-half fusion (A. thaliana); experiment: as above
[4] = target: CENH3 as yeast two-hybrid fusion (AD prey and BD bait) (A. thaliana) (UniProt Q8RVQ9); experiment: two-hybrid; co-transformation of pGBKT7 (BD bait) and pGADT7 (AD prey) into S. cerevisiae Y2H Gold; growth on selective triple dropout (–LTH) medium, 30°C
[5] = target: T4, αKNL2 (full-length) as yeast two-hybrid bait (A. thaliana); experiment: as above
[6] = target: T5, αKNL2-N (aa 1–363) as yeast two-hybrid bait (A. thaliana); experiment: as above
[7] = target: T6, CENH3 (centromeric histone H3), Venus-half fusion (A. thaliana); experiment: co-IP; N. benthamiana leaves co-expressing HA- and cMYC-tagged (Venus-half) constructs; total protein extracts precipitated with anti-HA magnetic beads (HA-trap, Chromotek); blot with anti-cMYC
[8] = target: T7, ULP1d (SUMO protease ULP1d/OTS1), Venus-half fusion (A. thaliana); experiment: split reporter; BiFC with Venus halves (VENn/VENc) in N. benthamiana leaf epidermal cells co-infiltrated with A. tumefaciens GV3101; HC-Pro co-expressed; both orientations tested
[9] = target: T6, CENH3 (centromeric histone H3), Venus-half fusion (A. thaliana); experiment: as above
[10] = target: T2, αKNL2-C (C-terminal region of Arabidopsis KINETOCHORE NULL2, aa 364–598), Venus-half fusion (A. thaliana); experiment: co-IP; N. benthamiana leaves co-expressing HA- and cMYC-tagged (Venus-half) constructs; total protein extracts precipitated with anti-HA magnetic beads (HA-trap, Chromotek); blot with anti-cMYC
[11] = target: T8, αKNL2-C^K474R/K511R, Venus-half fusion (A. thaliana); experiment: split reporter; BiFC with Venus halves (VENn/VENc) in N. benthamiana leaf epidermal cells co-infiltrated with A. tumefaciens GV3101; HC-Pro co-expressed; both orientations tested
[12] = target: T9, αKNL2-C^Mut-SUMO (SUMOylation-deficient αKNL2-C: K378R, K474R, K511R, SIMs 547–551 and 568–572 deleted), Venus-half fusion (A. thaliana); experiment: as above

Row | binding [1] | binding [2] | binding [3] | Molecule | other results
1 | no binding | no binding | no binding | SUMO2, Venus-half fusion (from UniProt Q9FLP6 1-103) | 
2 | no binding | no binding | no binding | SUMO1, Venus-half fusion (from UniProt P55852 1-100) | 
3 |  |  |  | CENH3 as yeast two-hybrid fusion (AD prey and BD bait) (protein, UniProt Q8RVQ9 1-178) MARTKHRVTRSQPRNQTDAAGASSSQAAGPTTTPTRRGGEGGDNTQQTNPTTSPATGTRRGAKRSRQAMPRGSQKKSYRYRPGTVALKEIRHFQKQTNLLIPAASFIREVRSITHMLAPPQINRWTAEALVALQEAAEDYLVGLFSDSMLCAIHARRVTLMRKDFELARRLGGKGRPW | binding [4]: binds; binding [5]: no binding; binding [6]: no binding
4 |  |  |  | αKNL2-C^Mut-SUMO (SUMOylation-deficient αKNL2-C: K378R, K474R, K511R, SIMs 547–551 and 568–572 deleted), Venus-half fusion (domain or fragment, UniProt F4KCE9) NYSGTKVKSAENKRRIDASKLQSPTSNVAEHSKEGLNNAKSNDVEKDVCVAINNEVISPVKGFGKRLSGTDVERLTSKNATKESLTSVQRKGRVKVSKAFQDPLSKGKSKRSEKTLQSNSNVVEPMNHFRSEAEEAEENLSWEKIKRRIDFDVEVTPEKKVKQQKTNAASTDSLGQKRSRSGRLEFWRNQIPVYDMDRNDGSETNSAPSKGKGSDSRKRRNLKIK | binding [7]: no binding; binding [8]: no binding; binding [9]: no binding
5 | no binding | no binding | no binding | SUMO5, Venus-half fusion (protein, UniProt Q8VZI7 1-108) MVSSTDTISASFVSKKSRSPETSPHMKVTLKVKNQQGAEDLYKIGTHAHLKKLMSAYCTKRNLDYSSVRFVYNGREIKARQTPAQLHMEEEDEICMVMELGGGGPYTP | 
6 | no binding | binds | no binding | small ubiquitin-like modifier 3 (SUMO3), Venus-half fusion (protein, UniProt Q9FLP5 1-111) MSNPQDDKPIDQEQEAHVILKVKSQDGDEVLFKNKKSAPLKKLMYVYCDRRGLKLDAFAFIFNGARIGGLETPDELDMEDGDVIDACRAMSGGLRANQRQWSYMLFDHNGL | binding [10]: binds; binding [11]: no binding; binding [12]: no binding
